# Data as given in patent US20240392020A1 (JIANGSU HENGRUI PHARMACEUTICALS, published 2024).
# Where two headings read alike, the source gives them in different places.
# T1: hP40 (human, UniProt P29460 23-328)
# T1 construct: bought
# T1 sequence (looked up): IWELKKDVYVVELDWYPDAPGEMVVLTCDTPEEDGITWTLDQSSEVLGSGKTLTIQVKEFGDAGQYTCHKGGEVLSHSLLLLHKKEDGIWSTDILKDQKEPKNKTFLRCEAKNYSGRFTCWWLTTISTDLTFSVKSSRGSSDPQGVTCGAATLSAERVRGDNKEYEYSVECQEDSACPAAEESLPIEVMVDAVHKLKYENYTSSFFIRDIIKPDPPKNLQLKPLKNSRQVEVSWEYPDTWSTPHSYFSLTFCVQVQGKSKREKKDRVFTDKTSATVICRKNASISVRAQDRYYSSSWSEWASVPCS
# Experiments:
# hP40 [1] = target: T1, hP40; assay: SPR Biacore T200, antibody captured on Protein A chip
# hP40 [2] = target: T1, hP40; assay: ELISA
# hP40 [3] = target: T1, hP40; assay: SPR Biacore T200, antibody captured on Protein A chip; remark: listed apart in the source
# hP40 [4] = target: T1, hP40; assay: ELISA; remark: listed apart in the source
# Light chain of J1 = target: T2, Light chain of J1; assay: mass spectrometry of the product of four co-transfected chains of HJ-3; mispairing of heavy chain 1 with light chain 4
# T2 construct: single antibody chain, co-expressed; also called HJ-1-L2; HJ-3-L2
# T2 sequence (light, as listed by the source): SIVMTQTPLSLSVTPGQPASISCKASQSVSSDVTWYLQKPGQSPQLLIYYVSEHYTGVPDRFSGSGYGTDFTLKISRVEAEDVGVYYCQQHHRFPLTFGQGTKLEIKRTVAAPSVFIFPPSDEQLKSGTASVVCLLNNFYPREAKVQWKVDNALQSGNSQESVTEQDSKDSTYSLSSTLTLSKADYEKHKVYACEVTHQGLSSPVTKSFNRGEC
# HJ-4-L1 = target: T3, HJ-4-L1; assay: mass spectrometry of the product of four co-transfected chains of HJ-4; mispairing of heavy chain 1 with light chain 4
# T3 construct: also called chain 4 of HJ-4
binder,measurement,setting,value
"Umab (antibody, human IgG1, kappa, also called U0) heavy: EVQLVQSGAEVKKPGESLKISCKGSGYSFTTYWLGWVRQMPGKGLDWIGIMSPVDSDIRYSPSFQGQVTMSVDKSITTAYLQWNSLKASDTAMYYCARRRPGQGYFDFWGQGTLVTVSS[human IgG1 constant region cut from this listing] light: [about 200 residues cut from this listing]",Kd,hP40 [1],0.0793 nM
same,koff,hP40 [1],0.000114 s⁻¹
same,kon,hP40 [1],1.44e+06 M⁻¹ s⁻¹
same,EC50,hP40 [2],0.06 nM
same,Kd,hP40 [3],0.0689 nM
same,koff,hP40 [3],0.000109 s⁻¹
same,kon,hP40 [3],1.59e+06 M⁻¹ s⁻¹
same,EC50,hP40 [4],0.0888 nM
"HJ-3-H1 (heavy chain of H0, knob, CH1 replaced with T.10-L1) (other, single antibody chain, co-expressed) heavy: EVQLVESGGGLVQPGGSLRLSCAASGFTFSHYYMAWVRQAPGKGLEWVTSISYEGDITYYGDSVKGRFTISRDNSKNTLYLQMNSLRAEDTATYYCASQTLRESFDYWGQGTLVTVSSGGGGSGIPPKIECLPIDISIDEGKVLTVASAFTGEPTPEVTWSTGGRKIHSQEQGRFHIENTDDLTTLIIKDVQKQDGGLYTLTLRNEFGSDSATVNIHIRSI[human IgG1 Fc with changes and a few adjoining residues cut from this listing]",binding result,Light chain of J1,no binding
"HJ-4-H2 (other, also called chain 1 of HJ-4) heavy: EVQLVQSGAEVKKPGSSVKVSCKASGYTFSNYLIEWVRQAPGQGLEWIGVIDPGVGDTNYNENFKGRATLTADKSTSTAYIELSSLRSEDTAVYYCAREDNTGTAFDYWGQGTTVTVSSGGGGSGIPPKIECLPIDISIDEGKVLTVASAFTGEPTPEVTWSTGGRKIHSQEQGRFHIENTDDLTTLIIKDVQKQDGGLYTLTLRNEFGSDSATVNIHIRSI[human IgG1 Fc with changes and a few adjoining residues cut from this listing]",binding result,HJ-4-L1,no binding
